Reference: the supplement of paper PMC7826260
Some of the results follow. The data describe in vitro nicking of single-stranded DNA by Rep domains (1 h at 37 °C, 3 µM enzyme); the outer parts of the 90-letter strands are left off. Numbers give uncut DNA relative to the enzyme-free pool, as log2; more negative means more cut, near 0 not cut, and no call is made. The scaling is to total reads; where an enzyme cuts many sequences, the uncut ones exceed 0.

How the values were obtained:
Assay in all cases: uncleaved DNA left, log2 of reads against the no-enzyme library (log2 ratio); higher = less cleavage (more negative = more Rep cleavage of the k-mer); sequences stand for … in CTCGTCCG…ACCGGAGA
[1] = tested on: T1, Rep nickase domain of Muscovy duck circovirus
T1 sequence (Rep 1-111, printed without the tag): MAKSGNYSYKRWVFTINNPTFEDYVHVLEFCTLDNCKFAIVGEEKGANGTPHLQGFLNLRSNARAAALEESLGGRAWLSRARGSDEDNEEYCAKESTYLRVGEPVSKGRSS
Experimental: (§1)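 A pool of 90-nt single-stranded DNAs with seven random bases just before the constant AC of the nick site (name = the seven bases) was cut by 3 µM recombinant His6-SUMO-tagged Rep nickase domain (300 nM DNA, 50 mM HEPES pH 8.0, 50 mM NaCl, 1 mM MnCl2, 1 h, 37 °C, three replicates). Uncut DNA was amplified and sequenced.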

[2] = tested on: T2, Rep nickase domain of banana bunchy top virus
T2 sequence (Rep 1-94, printed without the tag): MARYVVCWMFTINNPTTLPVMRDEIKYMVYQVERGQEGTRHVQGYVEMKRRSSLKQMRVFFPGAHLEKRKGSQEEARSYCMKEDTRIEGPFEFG
Experimental: as §1

[3] = tested on: T3, Rep nickase domain of cabbage leaf curl virus
T3 sequence (Rep 1-116, printed without the tag): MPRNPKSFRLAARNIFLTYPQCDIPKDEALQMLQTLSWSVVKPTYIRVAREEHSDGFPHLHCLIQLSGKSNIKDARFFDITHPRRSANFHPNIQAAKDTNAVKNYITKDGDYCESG
Experimental: as §1

[4] = tested on: T4, Rep nickase domain of chickpea chlorotic dwarf virus
T4 sequence (Rep 1-124, printed without the tag): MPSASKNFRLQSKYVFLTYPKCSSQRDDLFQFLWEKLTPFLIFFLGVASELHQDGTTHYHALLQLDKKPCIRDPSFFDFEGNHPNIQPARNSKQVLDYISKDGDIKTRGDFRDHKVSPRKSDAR
Experimental: as §1

[5] = tested on: T5, Rep nickase domain of faba bean necrotic yellows virus
T5 sequence (Rep 1-98, printed without the tag): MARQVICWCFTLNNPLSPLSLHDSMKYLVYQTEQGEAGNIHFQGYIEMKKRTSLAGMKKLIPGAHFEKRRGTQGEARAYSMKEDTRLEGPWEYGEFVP
Experimental: as §1

[6] = tested on: T6, Rep nickase domain of maize striate mosaic virus
T6 sequence (Rep 1-117, printed without the tag): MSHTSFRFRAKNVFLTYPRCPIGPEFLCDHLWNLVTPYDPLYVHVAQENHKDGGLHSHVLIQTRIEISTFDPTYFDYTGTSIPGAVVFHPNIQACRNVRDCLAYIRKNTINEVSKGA
Experimental: as §1

[7] = tested on: T7, Rep nickase domain of porcine circovirus 2
T7 sequence (Rep 2-116, printed without the tag): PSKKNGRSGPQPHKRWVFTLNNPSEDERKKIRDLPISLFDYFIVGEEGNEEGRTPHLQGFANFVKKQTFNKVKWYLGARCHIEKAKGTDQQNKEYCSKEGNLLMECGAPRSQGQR
Experimental: as §1

[8] = tested on: T8, Rep nickase domain of tomato yellow leaf curl virus
T8 sequence (Rep 1-136, printed without the tag): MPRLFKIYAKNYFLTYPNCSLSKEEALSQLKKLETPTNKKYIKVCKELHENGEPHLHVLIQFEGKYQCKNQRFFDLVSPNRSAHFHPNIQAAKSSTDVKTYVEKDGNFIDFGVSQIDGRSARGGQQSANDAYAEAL
Experimental: as §1

[9] = tested on: T9, Rep nickase domain of wheat dwarf virus
T9 sequence (Rep 1-137, printed without the tag): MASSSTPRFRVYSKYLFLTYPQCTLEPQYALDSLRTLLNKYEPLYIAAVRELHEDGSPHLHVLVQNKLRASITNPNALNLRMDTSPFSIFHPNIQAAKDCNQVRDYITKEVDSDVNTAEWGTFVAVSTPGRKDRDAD
Experimental: as §1

Sequence | uncleaved DNA left (log2) [1] | uncleaved DNA left (log2) [2] | uncleaved DNA left (log2) [3] | uncleaved DNA left (log2) [4] | uncleaved DNA left (log2) [5] | uncleaved DNA left (log2) [6] | uncleaved DNA left (log2) [7] | uncleaved DNA left (log2) [8] | uncleaved DNA left (log2) [9]
TATGACG | -0.183 | -0.18 | -0.912 | -0.705 | -0.156 | -1.34 | -0.0205 | -0.078 | -0.278
CTTGCTT | -0.179 | -0.222 | -0.651 | -1.82 | -0.13 | -1.2 | -0.911 | -0.124 | -0.245
CCTGACG | -0.131 | -0.174 | -0.817 | -0.646 | -0.138 | -1.08 | 0.0305 | -0.124 | -0.113
CTTCATG | 0.0626 | -0.138 | -0.723 | -0.648 | 0.095 | -1.26 | 0.137 | -0.0211 | 0.00439
GTAAAAG | 0.0161 | -0.00794 | -0.477 | -0.518 | -0.0051 | -0.886 | 0.169 | 0.0822 | -0.0102
CTCACAT | 0.0512 | 0.0637 | 0.308 | -0.123 | 0.0471 | 0.11 | 0.149 | 0.136 | 0.297
ACTTTTT | -2.3 | -0.539 | -0.362 | -2.62 | 0.0865 | -0.947 | -3.37 | -0.0807 | -0.00285
CGAAACA | 0.0894 | 0.151 | -0.0181 | -1.46 | 0.0903 | -0.354 | -0.0686 | 0.223 | 0.142
TAAAGAT | -0.0177 | 0.00232 | -3.18 | -2.77 | -0.112 | 0.799 | 0.0195 | -0.0902 | -1.47
ACTTCCG | 0.00185 | 0.0758 | -0.845 | 0.282 | -0.0117 | -0.651 | 0.13 | 0.0157 | -0.128
GGATATT | -0.527 | 0.0317 | 0.846 | 1.82 | 0.0871 | 2.16 | -1.81 | 0.126 | 0.167
TTGGCGT | 0.0104 | -0.13 | -1.07 | -0.305 | -0.0615 | -0.858 | -0.0252 | -0.134 | -0.195
CGTTTGT | -0.0581 | 0.0232 | -0.244 | -0.415 | 0.0912 | -0.623 | -0.355 | 0.17 | -0.0232
ATCCGGC | -0.131 | -0.241 | -0.181 | -0.151 | -0.0719 | -0.773 | 0.114 | -0.123 | -0.112
ACATAAT | -2.22 | -0.0416 | -0.418 | -1.7 | 0.0508 | -0.924 | -3.49 | -0.122 | -0.0218
ATGTCCG | 0.169 | 0.0878 | -0.72 | -0.0178 | 0.244 | -0.893 | 0.274 | 0.0483 | -0.0338
CATTCAT | -1.78 | -3.05 | -0.102 | -1.46 | 0.0274 | -0.768 | -3.48 | 0.0731 | 0.0558
GGACGAT | -0.00398 | -0.0348 | 0.757 | 1.74 | -0.00646 | 2.2 | 0.0458 | -0.173 | 0.00186
TCTCCAC | -0.119 | -0.161 | 0.186 | 0.014 | 0.0192 | 0.207 | -0.15 | -0.141 | -0.0881
GGCGCGG | -0.025 | 0.0969 | 0.141 | 0.555 | 0.0894 | 1.53 | 0.117 | -0.153 | -0.0122

Sequence | uncleaved DNA left (log2) [1] | uncleaved DNA left (log2) [2] | uncleaved DNA left (log2) [3] | uncleaved DNA left (log2) [4] | uncleaved DNA left (log2) [5] | uncleaved DNA left (log2) [6] | uncleaved DNA left (log2) [7] | uncleaved DNA left (log2) [8] | uncleaved DNA left (log2) [9]
TTCGTAT | 0.0851 | 0.0129 | 0.159 | -0.438 | 0.0651 | -0.298 | -7.87e-06 | -0.0153 | -0.0224
TGAGTTC | 0.0174 | -0.0594 | 0.178 | -0.203 | -0.0881 | 0.233 | -0.0623 | -0.0674 | -0.127
TAAGATC | -0.096 | -0.185 | -1.63 | -2.59 | -0.12 | -0.378 | -0.0305 | -0.119 | -0.477
GGCTGGC | 0.15 | 0.0025 | 0.472 | 1.04 | 0.0802 | 1.43 | 0.209 | 0.118 | 0.0512
TGTGCTC | -0.0177 | -0.0124 | 0.127 | 0.22 | -0.0306 | 0.277 | -0.0225 | -0.0581 | -0.0187
CAGGAGC | -0.109 | -0.102 | 0.168 | 0.843 | -0.00936 | 0.174 | 0.185 | -0.044 | -0.128
CAAAGAA | 0.113 | 0.109 | 0.0976 | -0.313 | 0.109 | -0.577 | 0.295 | 0.0062 | 0.0757
CTAGCTT | -0.0527 | -0.0596 | -0.138 | -1.61 | -0.127 | -0.141 | -0.28 | -0.159 | -0.0381
TCTCGAG | -0.0588 | -0.257 | -0.000215 | 0.0228 | -0.168 | -0.978 | 0.0249 | -0.0765 | -0.16
CTGAGTC | 0.0706 | 0.0195 | -0.0863 | -0.118 | 0.00938 | -0.576 | 0.0537 | 0.0266 | 0.0222
AAGCCTC | 0.0402 | 0.105 | 0.323 | -0.21 | 0.139 | 0.221 | -0.171 | 0.107 | 0.105
CAATGAG | 0.0313 | -0.000467 | -0.737 | 0.199 | 0.0694 | -0.743 | 0.0814 | 0.13 | -0.189
AGCCTGG | 0.0735 | 0.0777 | 0.102 | 0.49 | 0.183 | 0.754 | 0.211 | 0.0313 | 0.132
GTCTCAG | 0.044 | 0.00888 | 0.24 | 0.698 | -0.0115 | 1.37 | 0.0785 | 0.00545 | -0.0399
GAGCAGG | -0.00832 | 0.0733 | -0.000498 | 0.586 | -0.045 | 0.882 | 0.159 | -0.0245 | -0.0804
TTGAGCA | -0.0422 | -0.0766 | -0.285 | -0.7 | -0.0894 | -1.02 | -2 | 0.0111 | -0.188
TGAAGAT | 0.0388 | -0.0635 | 0.243 | 0.875 | 0.0508 | 1.41 | 0.0845 | -0.0746 | 0.0749
CAGGTGT | 0.0413 | -0.00133 | 0.111 | 0.858 | -0.0834 | 0.997 | -0.132 | -0.0437 | -0.0632
TCTCAGA | 0.00609 | -0.105 | 0.11 | -0.131 | -0.0493 | -0.606 | 0.0971 | -0.0451 | 0.0305
CTCCGTC | -0.022 | -0.0404 | 0.0928 | 0.0611 | 0.0118 | 0.26 | 0.0698 | -0.108 | -0.0897
